According to PubChem BioAssay AID1745853 (National Center for Advancing Translational Sciences (NCATS), 2022):
The other results are listed elsewhere or left out. Further columns of the screen follow, without active or inactive calls.

How the values were obtained:
Assay in all cases: Primary Screen for Target Class Profiling of Small Molecule Inhibitors of Methyltransferases
[1] = molecular target: Glycine N-methyltransferase (Homo sapiens) (UniProt Q14749); settings: purified enzyme, MTase-Glo SAH luminescence; measured here: GNMT inhibition; at 40 µM; stronger effect = lower value
Method in brief: (§1)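 Each enzyme was assayed with SAM and its substrate. SAH formation detected by MTase-Glo luminescence; single-point 40 uM screen[…].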

[2] = molecular target: Guanidinoacetate N-methyltransferase (Homo sapiens) (UniProt Q14353); settings: purified enzyme, MTase-Glo SAH luminescence; measured here: GAMT inhibition; at 40 µM; stronger effect = lower value
Method in brief: as §1

[3] = molecular target: Histamine N-methyltransferase (Homo sapiens) (UniProt P50135); settings: purified enzyme, MTase-Glo SAH luminescence; measured here: HNMT inhibition; at 40 µM; stronger effect = lower value
Method in brief: as §1

[4] = molecular target: Nicotinamide N-methyltransferase (Homo sapiens) (UniProt P40261); settings: purified enzyme, MTase-Glo SAH luminescence; measured here: NNMT inhibition; at 40 µM; stronger effect = lower value
Method in brief: as §1

[5] = molecular target: Phenylethanolamine N-methyltransferase (Homo sapiens) (UniProt P11086); settings: purified enzyme, MTase-Glo SAH luminescence; measured here: PNMT inhibition; at 40 µM; stronger effect = lower value
Method in brief: as §1
% is scaled to controls: 0 for no effect and ±100 for the full control effect.

| SMILES | activity change, negative = inhibition [1] [%] | activity change, negative = inhibition [2] [%] | activity change, negative = inhibition [3] [%] | activity change, negative = inhibition [4] [%] | activity change, negative = inhibition [5] [%] |
| --- | --- | --- | --- | --- | --- |
| CC(=O)Nc1ccc(C(=O)NCc2nn(Cc3ccccc3)c3ccccc23)cc1 | 7.08 | 2.84 | 8.37 | -6.55 | 7.23 |
| Cc1c(C(C)NC(=O)c2ccc(=O)[nH]c2)cnn1-c1cccc2ccccc12 (stereo not given) | -4.46 | -1.66 | 2.13 | -7.54 | -3.91 |
| Cc1cc(NC(=O)Nc2ccc3c(ccn3C)c2)sn1 | -15.4 | 11.8 | -17.3 | -6.36 | 0.691 |
| COCCn1c(COc2c(F)ccc(Cl)c2F)nnc1C1CC(N)C1 (stereo not given) | -3.35 | -1.05 | -8.42 | -6.25 | -0.29 |
| CC1CC(C)CN(S(=O)(=O)c2ccc3c(c2)oc(=O)n3CC(=O)Nc2ccc(Cl)cc2)C1 (stereo not given) | 14.1 | 0.108 | 11.2 | 2.69 | -34.1 |
| CCc1nc(NCc2cn[nH]c2-c2ccc(Cl)cc2)c2cnn(C)c2n1 | -12.4 | -4.15 | -13.8 | -14.2 | 4.39 |
| CCCn1nc(CNC(=O)Cc2cccc(F)c2)c2ccccc21 | 13.8 | 4.34 | 12.6 | 3.23 | 9.22 |
| CC1(C(=O)NCc2ccccc2)Cn2cnc(C(=O)NCCc3ccc(Cl)cc3)c2C(=O)N1C1CC1 (stereo not given) | -3.36 | 0 | 1.53 | 0.049 | 2.08 |
| C=CC(C)(C)c1[nH]c2ccccc2c1C1=C(O)C(=O)C(c2c[nH]c3c(CC=C(C)C)cccc23)=C(O)C1=O | – | -9.54 | – | -15.5 | -4.62 |
| CCn1c(CO)nnc1C1CC(NC(=O)c2sccc2N)C1 (stereo not given) | -6.18 | -8.87 | -3.1 | -15.8 | -2.16 |
| C/C1=C\[C@@H](C)C[C@@H](C)[C@@H](Cc2cnco2)OC(=O)/C(C)=C/[C@@H](C)C[C@@H](C)[C@@H](Cc2cnco2)OC1=O | -1.42 | -0.558 | 10.2 | -13.1 | -9.24 |
| CNCCCC1(c2ccccc2)OC(C)(C)c2ccccc21 (stereo not given) | 4.18 | 11.8 | -1.43 | -8.26 | 6.86 |
| CCCn1c(=O)c2ccc(C(=O)NC(C)CC)cc2n2c(=O)n(CC(=O)c3ccc(C)cc3)nc12 (stereo not given) | 1.83 | 1.17 | 4.16 | -0.973 | 4.25 |
| CCC1=CC2CN(C1)Cc1c([nH]c3ccccc13)[C@@](C(=O)OC)(c1cc3c(cc1OC)N(C)[C@H]1[C@@](O)(C(=O)OC)[C@H](OC(C)=O)[C@]4(CC)C=CCN5CC[C@]31[C@@H]54)C2 (stereo not given in full) | -5.4 | – | 1.27 | – | – |
| COCCNC(=O)C1(C)Cn2nc(-c3ccccc3)cc2C(=O)N1c1ccc(F)cc1C (stereo not given) | -7.31 | -1.53 | -2.63 | 1.37 | -3.01 |
| O=C(/C=C/c1ccc(O)c(O)c1)O[C@H]1[C@@H]2C=CO[C@@H](O[C@@H]3O[C@H](CO)[C@@H](O)[C@H](O)[C@H]3O)[C@@H]2[C@@]2(CO)O[C@@H]12 | -0.48 | 0.283 | 6.92 | -10.5 | -2.43 |
| CC(C)CC(=O)OC[C@@]1(O)C[C@@]23CC[C@H]4[C@@](C)(CCC[C@@]4(C)C(=O)O)[C@@H]2CC[C@@H]1C3 | 0 | -2.14 | 3.56 | -17.3 | 1.38 |

| SMILES | activity change, negative = inhibition [1] [%] | activity change, negative = inhibition [2] [%] | activity change, negative = inhibition [3] [%] | activity change, negative = inhibition [4] [%] | activity change, negative = inhibition [5] [%] |
| --- | --- | --- | --- | --- | --- |
| CCOC(=O)c1cc2n(n1)CC(C)(C(=O)NC1CCCCCC1)N(Cc1cccc(F)c1)C2=O (stereo not given) | 7.86 | 4.4 | 5.8 | 3.27 | 5.08 |
| CC(C)Nc1nc2c(S(=O)(=O)c3ccccc3)nnn2c2ccc(Cl)cc12 | -3.75 | 4.96 | 5.81 | -4.71 | 0.998 |
| Cn1c(=O)c2c(ncn2Cc2ccc(C(C)(C)C)cc2)n(C)c1=O | 1.15 | 9.2 | 9.8 | -25.1 | 0.113 |
| CCCn1c(=O)c2ccccc2n2c(SCC(=O)Nc3ccc(C)cc3)nnc12 | -4.49 | 0 | 5.86 | 0.54 | 2.5 |
| CNC(=O)C1C(=O)NCC12CCN(C(=O)c1ccc(C(C)(C)C)cc1)CC2 (stereo not given) | -4.63 | -4.39 | -2.49 | -15.7 | 8.98 |
| CN(C)c1cc(N2CCCC(NC(=O)c3cccnc3)C2)ncn1 (stereo not given) | -6.04 | -4.95 | -3.07 | -7.76 | -2.45 |
| COc1cccc(CN2CC3(C2)NC(=O)c2ccccc2O3)c1 | -4.55 | 3.98 | -3.09 | -8.45 | -0.902 |
| O=C(/C=C\n1cnc(-c2cc(C(F)(F)F)cc(C(F)(F)F)c2)n1)N1CC(F)(F)C1 | -6.83 | 1.79 | 8.05 | -18.1 | 2.61 |
| CCCn1c(=O)c2ccc(C(=O)NC(C)C)cc2n2c(SCc3ccc(F)cc3)nnc12 | -2.87 | -3.14 | 3.11 | -11.1 | -7.21 |
| CN1CCN(C(c2ccccc2)c2ccccc2)CC1 | -6.48 | -2.1 | 7.18 | -23.2 | 0.56 |
| COCCCNC(=O)CCn1ccc2cc(S(=O)(=O)N3CCCCC3)ccc21 | 9.98 | 5.09 | 7.64 | 8.18 | 3.6 |
| CCCC[S+](=O)([O-])N1CC(=O)N(CCCc2ccccc2)CC(O)C1 (stereo not given) | -0.393 | 2.4 | 0.828 | -1.92 | -1.74 |
| CO[C@H]1C[C@@H]2CC[C@@H](C)[C@@](O)(O2)C(=O)C(=O)N2CCCC[C@H]2C(=O)O[C@H]([C@@H](C)C[C@@H]2CC[C@@H](O)[C@H](OC)C2)CC(=O)[C@H](C)/C=C(\C)[C@@H](O)[C@@H](OC)C(=O)[C@H](C)C[C@H](C)/C=C/C=C/C=C/1C | -7.88 | 13.5 | 6.18 | 3.34 | 8.66 |
| CC(C)OC(=O)C1=CN(C(=O)c2ccc(F)c(F)c2)CC(C)(C)c2c1[nH]c1ccccc21 | -1.42 | -13.1 | -0.2 | -23.2 | -8.86 |
| CC(C)CCn1c(=O)c2ccccc2n2c(=O)n(CC(=O)N3CCN(c4ccc(F)cc4)CC3)nc12 | 3.96 | 0.576 | 2.25 | -5.38 | 5.79 |
| CC(=O)N1c2ccccc2C2(O)CC3C(=O)NC(CC(C)C)C(=O)N3C12 (stereo not given) | -3.61 | 1.51 | 4.71 | -10.7 | 4.33 |
| CC(=O)O[C@@H]1[C@H](O[C@@H]2O[C@@H](CO)[C@H](O)[C@H]2O)[C@@H](O[C@@H]2O[C@@H](C)[C@H](O[C@@H]3OC[C@@H](O)[C@H](O)[C@H]3O)[C@@H](O)[C@H]2O)[C@H](OC(=O)[C@]23CCC(C)(C)C[C@H]2C2=CCC4[C@@]5(C)CC[C@H](O[C@@H]6O[C@H](C(=O)O)[C@@H](O)[C@H](O)[C@H]6O[C@@H]6O[C@H](CO)[C@H](O)[C@H](O)[C@H]6O)[C@@](C)(C=O)C5CC[C@@]4(C)[C@]2(C)CC3)O[C@@H]1C (stereo not given in full) | 0 | 19 | 8.85 | 7.49 | 6.71 |
